# Test results as given in PubChem BioAssay AID493208 (National Center for Advancing Translational Sciences (NCATS), 2011).
# In all, about 44,000 compounds went through this assay and about 340 (0.77%) were called active. Another 5% or so got no clear call; they are omitted. Calls follow the shape of the dose curve; as a rule, active = well fitted inhibition curve with a large enough effect; inconclusive = small, poorly fitted or top-dose-only effect; inactive = flat fitted curve, though single readings scatter. The list shows a part of the results.
# Experiment: Acumen qHTS Assay for Inhibitors of the mTORC1 Signaling Pathway in MEF (Tsc2-/-, p53-/-) Cells: Sytravon; also: nearly all actives have a fitted effect of over 50% in size;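 as to activity change, negative = inhibition: plate controls were DMSO for no effect and rapamycin for full effect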
# Conditions: phospho-rpS6 immunofluorescence/PI, 24 h; series mostly up to 38.3 µM; activity change, negative = inhibition: at the top concentration
# In short: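 Immunofluorescence of rpS6 phosphorylation in Tsc2-/-, p53-/- MEFs after 24 h compound exposure, normalized to propidium iodide signal. Activity is expressed as % positive cells, thresholded with 7.5 nM rapamycin.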
# Potency is read from the fitted curve at half-maximal effect.
SMILES,"activity change, negative = inhibition",Potency
COc1ccc(N2CCN(c3oc(/C=C/c4cccc(OC)c4)nc3C#N)CC2)cc1,inactive: 3.38%,–
CCc1ccc(CNC(=O)C2CCN(c3nnc(-n4c(C)ccc4C)s3)CC2)cc1,inactive: -4.32%,–
O=[N+]([O-])c1ccc(C(c2sc3nc(-c4ccco4)nn3c2O)N2CCC3(CC2)OCCO3)cc1 (configuration not stated),inactive: -3.95%,–
CC(C)c1ccc(OCC(=O)Nc2cc(-c3nc4ncccc4o3)ccc2Cl)cc1,inactive: -0.434%,–
COc1ccccc1CNC(=O)C(C)n1c(=O)cc(C(F)(F)F)c2c(C)nn(C)c21 (configuration not stated),inactive: 4.26%,–
CCCCC(=O)Nc1ccc(OCc2cc(=O)n3ccc(C)cc3n2)cc1,inactive: 8.77%,–
CCCCN(CCCC)c1nc(-c2ccccc2)nc2ccccc12,inactive: 9.17%,–
Cc1oc(-c2cccc(Cl)c2)nc1CSCC(=O)O,inactive: 5.13%,–
CCN(C(=O)c1cc2c(Cl)nc3ccc(C)cc3c2s1)c1cc(OC)ccc1OC,inactive: -14.7%,–
CCC(=O)Nc1ccc(C)cc1-c1nc2ccccc2n(Cc2ccccc2)c1=O,inactive: 0.333%,–
COc1ccccc1C(=O)Nc1c(C(=O)Nc2ccc(C)cc2)oc2ccccc12,inactive: -0.644%,–
CC1(c2ccccc2)CC(C)(C)N(C(=O)c2ccccc2Cl)c2ccccc21 (configuration not stated),inactive: -0.922%,–
COc1ccc(NC(=O)C2CCCN2S(=O)(=O)c2ccc3c(c2)CCCC(=O)N3)cc1Cl (configuration not stated),inactive: 6.3%,–
COc1ccccc1CNC(=O)c1cc(-c2ccccc2)n[nH]1,inactive: -8.25%,–
Cc1ccc2nc(NC(=O)CSc3ncc(C(=O)Nc4ccccc4)c(=O)n3C)sc2c1,inactive: -0.184%,–
O=C(NCCCN1CCN(c2cccc(Cl)c2)CC1)c1nnc(Cc2ccc(F)cc2Cl)o1,inactive: 1.44%,–
Cc1ccc(N2C(=O)C(CC(=O)Nc3ccccc3)N(CCC3=CCCCC3)C2=O)cc1 (configuration not stated),inactive: -6.12%,–
CCc1ccc(S(=O)(=O)c2cnc(SCC(=O)Nc3ccc(OC)cc3OC)[nH]c2=O)cc1,inactive: -2.21%,–
Cn1c2ccc(F)cc2c2nnc(SCCN3CCCCC3)nc21,inactive: -16.3%,–
CC(C)NC(=O)c1sc2ncccc2c1-n1cccc1,inactive: 3.75%,–
CCOc1ccc(CCNC(=O)c2sc3nc4n(c(=O)c3c2C)CCCC4)cc1,inactive: 7.3%,–

SMILES,"activity change, negative = inhibition",Potency
Cc1sc2c(c1C)c(=O)n(Cc1ccccc1)c(=O)n2CC(=O)Nc1cccc(Cl)c1,inactive: -11.1%,–
O=C(O)Cn1nc(N2CCN(c3ccccc3)CC2)ccc1=O,inactive: 2.5%,–
CCOC(=O)Cn1cnc2c(cnn2-c2ccc(C)c(C)c2)c1=O,inactive: -4.84%,–
CC1CCC(NC(=O)CCc2cn(Cc3ccc(F)cc3)c3ccccc23)CC1 (configuration not stated),inactive: 2.79%,–
COc1ccc(NC(=O)c2nc(S(=O)(=O)Cc3ccc(C)cc3)ncc2Cl)cc1,–,active: 3.69 µM
Cc1ccccc1C(=O)NCc1ccc2c(c1)CCN2C(=O)c1ccc(F)cc1,inactive: -0.333%,–
Cc1nn2c(=O)cc(COC(=O)COc3ccccc3C)nc2s1,inactive: 0.463%,–
CCOc1ccc(C(=O)c2cn(CC(=O)Nc3ccc(C)c(C)c3)c3ccc(OCC)cc3c2=O)cc1,inactive: -4.13%,–
COc1ccccc1NC(=O)C1CCN(c2ncnc3c2nc2n3CCCCC2)CC1,inactive: 0.479%,–
COc1cc2c(cc1OC)C(COc1ccc(C(C)C)cc1)N(C(=O)COc1ccccc1)CC2 (configuration not stated),inactive: 14.3%,–
COc1ccc(N2CC(NC(=O)c3ccc(S(=O)(=O)N4CCOCC4)cc3)CC2=O)cc1 (configuration not stated),inactive: 0.558%,–
CCOC(=O)CSc1ncnc2c1c(-c1ccccc1)cn2-c1ccc(OC)cc1,inactive: -4.77%,–
CCS(=O)(=O)c1nc(S(=O)(=O)c2ccc(C)cc2)c(NCc2ccccc2Cl)s1,inactive: -8.01%,–
COc1ccc(OCC(=O)N2CCN(C(=O)c3ccc(OC)cc3)CC2)cc1,inactive: -1.8%,–
CCOc1ccc(Nc2nc(Nc3ccc(OCC)cc3)nc(N3CCOCC3)n2)cc1,–,active: 2.33 µM
COc1ccc(CCNC(=O)CCCn2c(=O)c3cccn3c3ccc(F)cc32)cc1OC,inactive: 3.19%,–
COc1ccc(NC(=O)CC2C(=O)N(c3ccc(C)cc3)C(=O)N2C2CCCC2)cc1 (configuration not stated),inactive: -8.56%,–
O=C(COc1ccc(Br)cc1)Nc1cccc2cccnc12,inactive: -4.23%,–
COC(=O)CN1C(=O)C(C)(C)c2cc(S(=O)(=O)Nc3ccc(C(C)C)cc3)ccc21,inactive: -4.9%,–
CC(NC(=O)c1cc2ccccn2n1)c1ccccc1 (configuration not stated),inactive: 3.24%,–
COc1cccc(NC(=O)c2oc3ccccc3c2NC(=O)Cc2cccc(C)c2)c1,inactive: 1.13%,–

SMILES,"activity change, negative = inhibition",Potency
COC(=O)c1ccc(Cl)cc1NC(=O)N1CCC(CN2CCC(C)CC2)CC1,inactive: 1.37%,–
CCc1cccc(NC(=O)c2coc(=O)c3ccccc23)c1,inactive: -5.62%,–
Cc1cn2c(=O)cc(COC(=O)C(C)Oc3ccccc3)nc2s1 (configuration not stated),inactive: 4.94%,–
O=C(NCc1ccc(Cl)cc1)c1cc(-c2ccc(F)cc2)on1,inactive: -1.24%,–
CCc1ccc(-n2nc(CO)c(C(=O)NCCCCc3ccccc3)n2)cc1,inactive: -0.613%,–
Cc1ccccc1OCC(=O)N(Cc1ccc(C(C)C)cc1)C1CCS(=O)(=O)C1 (configuration not stated),inactive: 1.9%,–
O=C(Nc1ccc(F)c(Cl)c1)C1CCCN1S(=O)(=O)c1ccc(F)cc1 (configuration not stated),inactive: -1.49%,–
Cc1ccc(S(=O)(=O)c2nc(-c3ccccc3)oc2SCC(=O)NC2CCCCC2)cc1,inactive: -13.3%,–
CCOC(=O)C1=C(CS(=O)(=O)c2ccc(C)c(C)c2)NC(=O)NC1c1ccccc1OCC (configuration not stated),inactive: 1.59%,–
CCOc1ccc(NC(=O)Cn2c(=O)n(Cc3nc(-c4ccccc4)no3)c(=O)c3ccccc32)cc1,inactive: -1.33%,–
O=C(Cn1c(=O)ccc2cc(S(=O)(=O)N3CCCC3)ccc21)NCc1ccc(F)cc1,inactive: -2.36%,–
COc1ccc(N(CC(=O)N2CCN(c3cccc(OC)c3)CC2)S(=O)(=O)c2c(C)noc2C)cc1,inactive: -0.226%,–
COc1cc(OC)c(NC(=O)c2ccc3c(Cl)c4c(nc3c2)CCCC4)cc1Cl,inactive: -9.49%,–
COc1ccc(CCNC(=O)CSCc2nc(-c3ccc(OC)c(OC)c3)oc2C)cc1OC,inactive: 3.04%,–
COCCNc1ccc(-c2nc(-c3cccc(C)c3)no2)cc1[N+](=O)[O-],inactive: -7.43%,–
CN1C(=O)c2ccccc2Sc2ccc(NC(=O)COc3ccc(Cl)cc3)cc21,inactive: -15%,–
Cn1c(-n2cccc2)c(-c2c(-c3ccc(F)cc3)[nH]c3c2c(=O)[nH]c(=O)n3C)c(=O)[nH]c1=O,inactive: 1.58%,–
CC1CCCN(C(=O)Cn2c(=O)n(CC3CCC(C(=O)NC(C)C)CC3)c(=O)c3sccc32)C1 (configuration not stated),inactive: -0.296%,–
COc1ccc(-n2ncc3c2ncn2nc(-c4ccc(Cl)cc4Cl)nc32)cc1,inactive: 4.54%,–
COc1cccc(OC)c1Cn1nnc2c(=O)[nH]c(C3CCN(C(=O)c4ccccc4)CC3)nc21,inactive: 0.16%,–
